Measured values taken from US11242407B2, “High-affinity anti-MERTK antibodies and uses thereof” (Rgenix, Inc., priority 2019, dated 2022).
Entries after “also recorded” stand apart in the source; their conditions may differ.

How the values were obtained:
RPMI8226 cells = assay: Cancer cell line viability assay of ADCs, RPMI8226; type: cell-based, human; conditions: RPMI8226 multiple myeloma cells, 7 days, compared to IgG conjugate or IgG control
Description: (§1) Cancer Cell Line Viability Assay

[1] = test system: MERTK-expressing M2 macrophages; assay: Macrophage viability assay, M2; conditions: 4 days of treatment in differentiating medium
SKMEL5 cells = assay: Cancer cell line viability assay of ADCs, SKMel5; type: cell-based, human; conditions: SKMel5 melanoma cells, 7 days, compared to IgG conjugate or IgG control
Description: as §1

[2] = test system: MDA-MB-231-LM2 TNBC cells; assay: Metastasis assay, z10-MMAE; type: in vivo; conditions: NSG mice, tail vein injection, i.p. dosing, compared to IgG-MMAE
Protocol: MDA-MB-231 LM2 TR triple negative breast cancer cells (received from Prof. Sohail Tavazoie, Rockefeller University, NYC) harboring a luciferase reporter gene (Minn et al., Nature. 2005 Jul. 28; 436(7050): 518-524) were cultured in D10F culture medium (DMEM Life Technologies, 11965-092, 10% FBS Sigma, F4135-500 ml, 1% NEAA Fisher, 11140-050, 1% sodium pyruvate Fisher, 11360-070, 1% Hepes Fisher, 15630-080 and 1% Pen/Strep Fisher, 15140-122. On the day of injection, cells were washed with DPBS (Fisher, 14190-144) and detached using 3 mL of 0.25% Trypsin-EDTA (Fisher, 25200-056) per 15 cm cell culture dish for 5 min in a 37° C. cell culture incubator. Detached cells were resuspended in 5 mL of D1F, counted using a hemocytometer and centrifuged at 220×g for 5 min at RT. The pellet was resuspended in DPBS at a concentration of 500,000 cells/mL. 8-week-old NSG female mice (Jackson, 005557) were exposed to a small animal heat lamp (Morganville Scientific, HL0100) for 2-3 minutes. 100 μL of the cell suspension (50'000 cells) was injected into the dilated lateral tail vein of female 8-week old NSG mice.
Lung colonization was monitored using IVIS imaging upon i.p. administration of 150 mg/kg D-luciferin (Thermofisher Scientific, Waltham, Mass.). […] Mann-Whitney U-test, one tailed was used to assess significance of the metastasis as measured by bioluminescence imaging.

MERTK = molecular target: T1, MERTK (Homo sapiens, UniProt Q12866); assay: Internalization assay of z10 and ADCs (pHrodo, surface MERTK by flow cytometry); type: cell-based; design: stained with BV421-conjugated antibodies against MERTK to detect surface MERTK levels; endogenous in cells; host or cells: SKMEL5 human melanoma cells; conditions: SKMel5 cells; for MERTK internalization: 6.7 nM pHrodo-labeled article; for MERTK degradation: 6.7 nM, surface MERTK stained with BV421-conjugated MERTK antibody
T1 sequence (Q12866 21-999): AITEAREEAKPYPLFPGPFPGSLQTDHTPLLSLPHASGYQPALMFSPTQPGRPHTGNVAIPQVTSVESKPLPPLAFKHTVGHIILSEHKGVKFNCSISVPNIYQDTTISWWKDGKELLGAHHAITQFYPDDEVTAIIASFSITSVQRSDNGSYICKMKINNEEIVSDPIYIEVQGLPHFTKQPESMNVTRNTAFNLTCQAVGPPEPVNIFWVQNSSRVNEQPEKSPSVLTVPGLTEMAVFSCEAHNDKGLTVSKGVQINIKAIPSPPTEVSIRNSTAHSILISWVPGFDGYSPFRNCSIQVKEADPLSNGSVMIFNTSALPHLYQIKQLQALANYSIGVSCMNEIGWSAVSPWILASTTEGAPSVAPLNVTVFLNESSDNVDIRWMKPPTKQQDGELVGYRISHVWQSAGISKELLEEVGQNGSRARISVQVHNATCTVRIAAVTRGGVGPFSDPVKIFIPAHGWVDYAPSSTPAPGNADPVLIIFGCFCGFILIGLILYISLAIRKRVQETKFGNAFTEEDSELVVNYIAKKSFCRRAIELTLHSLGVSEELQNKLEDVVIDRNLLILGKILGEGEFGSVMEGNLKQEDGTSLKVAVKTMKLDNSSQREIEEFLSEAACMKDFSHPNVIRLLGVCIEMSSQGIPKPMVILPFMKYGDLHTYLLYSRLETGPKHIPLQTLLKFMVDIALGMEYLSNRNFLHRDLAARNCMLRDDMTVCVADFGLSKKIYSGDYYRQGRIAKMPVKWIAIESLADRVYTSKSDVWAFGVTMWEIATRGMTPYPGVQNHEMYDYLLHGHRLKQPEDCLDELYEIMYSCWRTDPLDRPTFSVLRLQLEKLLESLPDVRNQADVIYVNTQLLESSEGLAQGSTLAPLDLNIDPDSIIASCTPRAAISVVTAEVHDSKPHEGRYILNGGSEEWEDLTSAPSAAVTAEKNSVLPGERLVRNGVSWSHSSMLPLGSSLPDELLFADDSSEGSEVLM
Protocol: Internalization of the antibody was determined by flow cytometry detecting pHrodo fluorescence, which is minimal at neutral pH and maximal in acidic environments, such as the lysosome.
The cells were trypsinized, strained through a 70 μm filter, and resuspended in FACS buffer (2% BSA, 10 mM EDTA, 25 mM HEPES, 0.1% sodium azide in Ca/Mg-free PBS) containing Human TruStain FcX blocking reagent (Biolegend, 422301). Cells were sequentially stained with BV421-conjugated antibodies against MERTK to detect surface MERTK levels (Biolegend, 367603) for 20 min on ice, and then stained with Fixable Viability Dye (eFluor 780) (Thermofisher, 65-0865-14) for 20 min on ice.
The Mean Fluorescence Intensities (MFI) of pHrodo and BV-421 were analyzed with LSRFortessa flow cytometer (BD Biosciences) and compensated data were plotted with GraphPad Prism. The MFI of pHrodo was normalized with Degree of Labeling (DOL) of pHrodo-labeled IgG, z10, z10-MMAE and z10-SN-38. DOL was calculated from A280 and A560 absorbance of the protein after labeling, according to the formula provided by the manufacturer.

[3] = test system: MERTK-expressing M1 macrophages; assay: Macrophage viability assay, M1; conditions: 4 days of treatment in differentiating medium

B1: z10-MMAE (conjugate)
heavy: QVQLVQSGAEVKKPGASVKVSCKASGYTFTNYGMNWVRQAPGQGLEWMGWINTYTGEPTYADDFKGRVTFTTDTSTSTAYMELRSLRSDDMAVYYCARKSTVVSRYFDVWGQGTTVTVSSASTKGPSVFPLAPSSKSTSGGTAALGCLVKDYFPEPVTVSWNSGALTSGVHTFPAVLQSSGLYSLSSVVTVPSSSLGTQTYICNVNHKPSNTKVDKRV[human IgG1 Fc omitted]
light: DIQMTQSPSFLSASVGDRVTITCKASQDVGDAVTWYQQKPGKAPKLLIYWASTRHTGVPDRFSGSGSGTDFTLTISSLQPEDFATYYCQQYRSYPLTFGQGTKLEIKRTVAAPSVFIFPPSDEQLKSGTASVVCLLNNFYPREAKVQWKVDNALQSGNSQESVTEQDSKDSTYSLSSTLTLSKADYEKHKVYACEVTHQGLSSPVTKSFNRGEC
cell viability (CellTiterGlo) (RPMI8226 cells): decreased viability | viability of M2 macrophages (CellTiter-Glo 2.0) [1]: neither z10 nor z10-MMAE nor z10-SN-38 nor the MERTK inhibitor UNC1062 affect the viability | cell viability (CellTiterGlo) (SKMEL5 cells): decreased viability | lung colonization (bioluminescence imaging) [2]: inhibits lung colonization | MERTK internalization (MERTK): induce MERTK internalization | MERTK degradation (MERTK): degrade MERTK to a similar extent; also recorded: induce MERTK degradation | viability of M1 macrophages (CellTiter-Glo 2.0) [3]: neither z10 nor z10-MMAE nor z10-SN-38 nor the MERTK inhibitor UNC1062 affect the viability

B2: z10-SN-38 (conjugate)
heavy: QVQLVQSGAEVKKPGASVKVSCKASGYTFTNYGMNWVRQAPGQGLEWMGWINTYTGEPTYADDFKGRVTFTTDTSTSTAYMELRSLRSDDMAVYYCARKSTVVSRYFDVWGQGTTVTVSSASTKGPSVFPLAPSSKSTSGGTAALGCLVKDYFPEPVTVSWNSGALTSGVHTFPAVLQSSGLYSLSSVVTVPSSSLGTQTYICNVNHKPSNTKVDKRV[human IgG1 Fc omitted]
light: DIQMTQSPSFLSASVGDRVTITCKASQDVGDAVTWYQQKPGKAPKLLIYWASTRHTGVPDRFSGSGSGTDFTLTISSLQPEDFATYYCQQYRSYPLTFGQGTKLEIKRTVAAPSVFIFPPSDEQLKSGTASVVCLLNNFYPREAKVQWKVDNALQSGNSQESVTEQDSKDSTYSLSSTLTLSKADYEKHKVYACEVTHQGLSSPVTKSFNRGEC
cell viability (CellTiterGlo) (RPMI8226 cells): decreased viability | viability of M2 macrophages (CellTiter-Glo 2.0) [1]: neither z10 nor z10-MMAE nor z10-SN-38 nor the MERTK inhibitor UNC1062 affect the viability | cell viability (CellTiterGlo) (SKMEL5 cells): decreased viability | MERTK internalization (MERTK): induce MERTK internalization | MERTK degradation (MERTK): degrade MERTK to a similar extent; also recorded: induce MERTK degradation | viability of M1 macrophages (CellTiter-Glo 2.0) [3]: neither z10 nor z10-MMAE nor z10-SN-38 nor the MERTK inhibitor UNC1062 affect the viability
